Data: the supplement of paper PMC8728848
This is one part of the list.

Legend:
[1] = biological target: Neu5Gc(a2-8)Neu5Gc(a2-6)Gal(b1-4)GlcNAc; experiment: glycan array binding signal (z-score within array); higher = stronger binding; settings: glycan notation: IUPAC condensed, linker removed
In short: (§1)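 Negative Z-scores can be read as non-binding. The Z-score is calculated within each array and then averaged across arrays of one protein sequence at different concentrations or buffers and across linkers. Arrays, 3228 in all, were curated from the Consortium for Functional Glycomics database and kept only where the protein sequence was available.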

[2] = biological target: Neu5Gc(b2-6)Gal(b1-4)GlcNAc; experiment: as above; settings: glycan notation: IUPAC condensed, linker removed
In short: as §1

B1: InvD YPIII (Yersinia pseudotuberculosis), B1JSC0 (protein)
chain: MIKYFSFFKKPEPIVGILPNRQSHHILPTHIRRVAWGTLLLQLFIPLSVSFSPAIAAMKASKADTMVSYSSTEPYVLGSGETVAMVAKKYGITVDELKKINIYRTFSRPFTALTTGDEIDIPRKASPFSVDNNKDNRLSVENTLAGHAVAGATALSNGDVAKSGERMVRSAASNEFNNSAQQWLSQFGTARVQLNINDDFHLDGSAADVLIPLYDNEKSILFTQLGARNKDSRNTVNMGAGVRTFQGNWMYGANTFFDNDLTGKNRRIGVGAEAWTDYLKLSANNYFGITDWHQSRDFIDYNERPANGYDLRAEAYLPSYPQLGGKAMYEKYRGDDVALFGKDNRQKNPHAITAGVNYTPIPLVTIGAEHRAGKGGQNDSNINFQLNYRLGETWQSHIDPSAVAASRTLAGSRYDLVERNNHIVLDYQKQNLVRLSLPDSLAGDPFSQLSVTAQVTATHGLERIDWQSAELMAAGGVLKQTSKNGLEITLPEYQMNRTGGNSYILNAIAYDTQGNASSQASMLITVNAQKINIANSTLVAVPINIEANNSDTSVVTLTLKDDNNIPVTGQDVTFLSPLGTLSAMTDSGNGVYTATLTAGTVSGTTAVSSNINGSALDMTPATVTLNGNSGELSITHSMLVAAPVNIEANGSDTSVVTLTLRDSNNNPVTGQTVTFAGTLGTLGAVTEGSSGVYTATLTAGIMVGTSSITASVNSTALGVTPATVTLNGDSGNLSTTNSTLVAAPVNIEANSSDTSVVTLTLRDNNNNPVTGQTVVFTSTLGTLGNVTEQASGVYTATLTAGTVSGVASLSVSVGGNALGVTPATVTLNGDSGNLSTTNSTLVAAPVNIEANSSDTSVVTLTLRDNNNNPVTGQTVNFAGTLGTLGTVSEGSSGVYTTTLTAGTVAGVASLSVNVGGNALGVTPATVTLNGNSGNLSATNSTLVAAPVNIEANSSDTSVVTLTLRDNNNNPVTGQTVAFTSTLGTLGNVTEQASGVYTATLTAGTVSGVASLSVSVNSNALGVTPATVTLNGDSGNLSTTNSTLVAAPVNIEANSSDTSVVTLTLRDNNNNPVTGQTVAFTSTLGTLGNVTEQASGLYTATLTAGTVSGVASLSVNVGGNALGVTPATVTLNGDSGNLSATNSTLVAAPVNIEANSSDTSVVTLTLRDNNNNPVTGQTVAFTSTLGTLGNVTEQASGLYTATLTAGTVSGVASLSVNVGGTALGVTPATVTLNGDSGNLSTTNSTLVAAPVNIEANSSDTSVVTLTLRDNNNNPVTGQTVAFTSTLGTLGNVTEQASGLYTATLTAGTVSGVASLSVSVNSTALGVTPATVTLNGDSGNLSTTNSTLVAAPVNIEANSSDTSVVTLTLRDNNNNPVTGQTVAFTSTLGTLGNVTEQASGVYTATLTAGTVAGVASLSVNVGGNALGVTPATVTLNGDSGNLSTTNSTLVAAPVNIEANSSDTSVVTLTLRDNNNNPVTGQTVAFTSTLGTLGNVTEQASGVYTATLTAGTVSGVASLSVSVGSSALGVTPATVTLNGDSGNLSTTNSTLVAAPVNIEANNSDTSVVTLTLRDNNNNPVTGQTVAFTSTLGTLGNVTEQASGVYTATLTAGTVSGVASLSVSVNSNALGVTPATVTLNGDSGNLSTTNSTLVAAPVNIEANSSDTSVVTLTLRDNNNNPVTGQTVVFTSTLGTLGNVTEQASGLYTATLTAGTVSGVASLSVSVGGNALGVTGNITLAPGALDAARSILAVNKPSINADDRIGSTITFTAQDAQGNAITGLDIAFMTDLENSQIMTLVDHNDGTYTANINGTQTGIANIAVQSSGATIAGLAATMVTITPGAWNTTQATPVMTVALPITTCQSSSGVYKRYYIGIVTHELYDNYGNEISGILTYNLGAGRYTTVTSQNSSVSGSNGLTRRSNSPVSHFILTSDAYTSQAACYAERIANVNVTITVTAITDDFKTSAVNKVFILGTGSN
With B1 the “glycan array binding signal (z-score)” value [1] was -0.317 and the “glycan array binding signal (z-score)” value [2] was 0.042.
